Source: PubChem BioAssay AID624330 (Southern Research Specialized Biocontainment Screening …, 2012)
Hit rate of the full screen: of about 340,000 compounds, about 2,100 (0.62%) were called active. This list was built around the results that the source calls inconclusive (neither active nor inactive); the mix of calls is not that of the screen.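 How the source made its calls: active means first-screen hits whose inhibition reached a set limit at any dose in the follow-up dose series; inconclusive means inhibition above the set first-screen limit but never retested; inactive means the rest.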

Target: Rac GTPase-activating protein 1 (Homo sapiens) (UniProt Q9H0H5)
Assay: blockers of MgcRacGAP-driven Rac1 GTP hydrolysis – biochemical, ADP Hunter fluorescence, primary and confirmatory, confirmation (AID 624330);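 further: fluorescence reports GDP produced by GAP-driven GTP hydrolysis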
Conditions: MgcRacGAP-stimulated Rac1 GTP hydrolysis, at 30 µM, hits give high values, GST-tagged Rac1 F28L mutant substrate

Chain of UniProt Q9H0H5 (Q9H0H5 whole entry, looked up): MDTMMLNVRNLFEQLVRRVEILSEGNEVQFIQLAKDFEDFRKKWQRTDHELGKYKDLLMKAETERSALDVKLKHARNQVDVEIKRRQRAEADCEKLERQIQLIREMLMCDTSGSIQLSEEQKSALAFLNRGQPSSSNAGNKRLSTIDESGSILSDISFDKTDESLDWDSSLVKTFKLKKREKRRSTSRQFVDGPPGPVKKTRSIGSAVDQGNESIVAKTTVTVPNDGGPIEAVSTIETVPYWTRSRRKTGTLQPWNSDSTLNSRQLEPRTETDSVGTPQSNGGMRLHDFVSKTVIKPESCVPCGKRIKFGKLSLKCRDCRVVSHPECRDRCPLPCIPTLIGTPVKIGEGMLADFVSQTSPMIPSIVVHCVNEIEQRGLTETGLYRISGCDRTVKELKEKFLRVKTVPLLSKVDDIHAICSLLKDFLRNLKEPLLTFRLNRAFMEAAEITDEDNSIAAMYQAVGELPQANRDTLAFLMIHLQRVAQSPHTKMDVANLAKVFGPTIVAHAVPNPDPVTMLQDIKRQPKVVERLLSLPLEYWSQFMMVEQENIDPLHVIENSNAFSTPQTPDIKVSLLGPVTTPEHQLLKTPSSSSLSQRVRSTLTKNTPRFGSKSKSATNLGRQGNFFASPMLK

Compound | inhibition
CCOC(=O)N1CCN(C(=O)CNC2CCCCCCC2)CC1 | inconclusive: 32.6%
O=c1cc(-c2ccc(O)c(O)c2)oc2cc(O[C@@H]3O[C@H](CO)[C@@H](O)[C@H](O)[C@H]3O)cc(O)c12 | inconclusive: 61.1%
CN(C)c1ccc(NC(=O)CC2NCCNC2=O)cc1 (stereo not given) | inconclusive: 36.3%
O=C(CCS(=O)(=O)c1ccc(Cl)cc1)Oc1ccc2c(c1)OCO2 | inconclusive: 58.6%
Cn1c(-c2ccccc2)cnc1NCc1ccccc1 | inconclusive: 34.9%
CSc1ccc(CN2CCC(n3nccc3NC(=O)C3CCOC3)CC2)cc1 (stereo not given) | inactive: 3.42%
COc1ccc(Br)cc1CNc1ccc(N2CCOCC2)cc1 | inconclusive: 117%
Oc1c(Br)cc(/C=N/n2c(-c3ccccc3)n[nH]c2=S)cc1Br | inactive: 17.3%
O=C(N/N=C/c1ccc(F)c(F)c1)c1cccc(S(=O)(=O)N2CCCCC2)c1 | inactive: 0.51%
COc1cc(NC(=O)C/C(C)=N/NC(=O)C(OC)c2ccccc2)c(OC)cc1Cl (stereo not given) | inactive: 15.9%
O=C(O)c1ccc(N=Nc2c(O)ccc3ncccc23)cc1 | inconclusive: 35.2%
COc1ccc(NC2CCCN(C(=O)CCN3CCCC3=O)C2)cc1 (stereo not given) | inconclusive: 57.4%
CN(C)c1cc(NC(=O)CNC(C)(C)CC(C)(C)C)c2ccccc2n1 | inconclusive: 32.4%
O=C1CC(=O)N(Cc2ccco2)C(=S)N1 | inconclusive: 57.5%
CC1(C)C(/C=C/C=C/C=C/C=C2\N(CCCCS(=O)(=O)O)c3ccc4ccccc4c3C2(C)C)=[N+](CCCCS(=O)(=O)[O-])c2ccc3ccccc3c21 | inconclusive: 48.3%
COc1ccccc1C(=O)NNC(=O)c1ccc2ccccc2c1O | inconclusive: 36%
Cc1ccn2c(NC3CCCC3)c(-c3ccccn3)nc2c1 | inconclusive: 51.5%
COc1ccc(NC2CCCN(C(=O)c3cc(CC(C)C)nc(N)n3)C2)cc1 (stereo not given) | inconclusive: 35.2%
O=C(c1ccccc1)c1cnc(Nc2ccccc2Cl)s1 | inactive: 8.39%
COCCCNC(=O)Cn1nnc(-c2ccccc2NC(=O)c2ccc(F)cc2)n1 | inconclusive: 41.2%
COc1ccc2nc(C)cc(SCC(=O)N/N=C/c3ccccc3)c2c1 | inactive: 5.43%
COc1ccc(CNc2ccc(N3CCOCC3)cc2)cc1 | inconclusive: 165%
O=C1c2ccccc2CN2C(=O)c3ccccc3CN12 | inactive: 3.55%
CCCCNC(=O)CN1CCN(Cc2ccc3cc(OC)ccc3c2)CC1 | inconclusive: 34.7%
c1ccc(-c2ccc3c(c2)NCCN3)cc1 | inconclusive: 105%
